Results published in PMC4242493.
The other results are listed elsewhere or left out. The list includes weakly bound sequences.

The sequences below were run against MaxL homodimer (UniProt P61244) (assay: universal protein-binding microarray (PBM)). Details: PBS-based mixture, 10 nM His-tagged protein dimer, 2% milk, 200 ng/uL BSA, 50 ng/uL salmon testes DNA, 0.02% TX-100; detection with Alexa 488 anti-His …; high values mean tight binding; most listed sequences are background and not binding sites; double strand, one strand shown.
Sequence of UniProt P61244 (P61244 whole entry): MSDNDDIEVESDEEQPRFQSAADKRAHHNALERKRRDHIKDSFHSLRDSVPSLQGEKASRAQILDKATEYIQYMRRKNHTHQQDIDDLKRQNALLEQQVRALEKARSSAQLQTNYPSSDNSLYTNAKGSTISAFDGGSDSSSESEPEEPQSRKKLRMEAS

Row | Sequence | binding signal (normalized occupancy)
1 | CCCTGAAA | 0.0743
2 | AAATGTAG | 0.0793
3 | AAACATCG | 0.0768
4 | AATCTTAA | 0.0767
5 | CCCACCGC | 0.0756
6 | CGATAGAC | 0.0779
7 | AAGAGTCT | 0.0691
8 | TCCCTAGA | 0.0729
9 | ACGGAACG | 0.0782
10 | GCATGCGA | 0.119
11 | CGAAATTC | 0.0746
12 | CACGTTGG | 0.122
13 | AGCCAGTA | 0.072
14 | GATGTGCA | 0.0814
15 | ATGAGCTC | 0.0798
16 | ACCGTAGG | 0.066
17 | ACCTTCCC | 0.0759
18 | ATGCCGAC | 0.078
19 | AGCAATAT | 0.0739
20 | AGCGGTGG | 0.0699
21 | AATCTTGC | 0.0679
22 | TCACAGCA | 0.0833

Row | Sequence | binding signal (normalized occupancy)
23 | CTTAGATA | 0.0789
24 | AGGCCGCA | 0.0762
25 | CGATGTCC | 0.0724
26 | CCCGCGAC | 0.0695
27 | CGAGTCGC | 0.0662
28 | CGCCTACC | 0.0768
29 | AGTTGATA | 0.074
30 | AATCCGTA | 0.0755
31 | GTCTAGAA | 0.0731
32 | ACAGGCGC | 0.0764
33 | TAGGACGA | 0.0723
34 | CAATGTAC | 0.0801
35 | CATCCATA | 0.0837
36 | AAGTCATA | 0.0841
37 | GAATAAAC | 0.0771
38 | CGGTCGCA | 0.07
39 | CATGGAAG | 0.0853
40 | CATGAGGA | 0.106
41 | CAGCGATA | 0.0716
42 | ACGGTAAC | 0.0756
43 | CACAGTGG | 0.0743
44 | CCCATCTA | 0.0745

Row | Sequence | binding signal (normalized occupancy)
45 | AGCGGGTG | 0.0755
46 | ACAGCGAC | 0.0721
47 | GGTGAACA | 0.0743
48 | AATAAAAA | 0.0751
49 | ATTGATTG | 0.0769
50 | GTTATCAA | 0.0808
51 | ACTCGACT | 0.0722
52 | CTGTAAAG | 0.0694
53 | CTTTCCAA | 0.0733
54 | GAGGTCAC | 0.0768
55 | AGACAACT | 0.0749
56 | AACACGCG | 0.12
57 | GTGGAACA | 0.0771
58 | ACACAGGA | 0.0789
59 | TGGTGCAA | 0.0791
60 | AGTGTGTC | 0.0772
61 | ACATAAGT | 0.0755
62 | GAGTGTCA | 0.0746
63 | AGTGCAAG | 0.0719
64 | ACGGCCCT | 0.0702
65 | CCAGCTCA | 0.0708
66 | TTAGAGAA | 0.0743

Row | Sequence | binding signal (normalized occupancy)
67 | CTCTCTGC | 0.0705
68 | GATGCCCC | 0.0764
69 | GCCCGCTA | 0.0689
70 | AACTTACC | 0.0716
71 | GTTGTAAA | 0.0725
72 | AGTCGCTA | 0.0684
73 | CCCGCATA | 0.0795
74 | CGGACCGA | 0.0634
75 | CTGCCCCC | 0.0797
76 | AAGCAGGG | 0.0711
77 | GCCCTATA | 0.0758
78 | CTTTTTTC | 0.0695
79 | CGCGGTCC | 0.0706
80 | GTAAATAA | 0.073
81 | ATCGGATC | 0.0727
82 | ATCAATTG | 0.0745
83 | CCGCGTGA | 0.142
84 | AGCACCAG | 0.0742
85 | AAATGAAG | 0.076
86 | ACTTTGCT | 0.0703
87 | AATTCCTG | 0.0731
88 | CGGTGGGC | 0.0662

Row | Sequence | binding signal (normalized occupancy)
89 | CTCCGTGA | 0.0702
90 | GATGCAGA | 0.0753
91 | ACGGAAAA | 0.0709
92 | AAAGCGGT | 0.0664
93 | AGGTGTCG | 0.0793
94 | AAAGTGAA | 0.0782
95 | CACTCGAG | 0.0674
96 | ACCTGGGA | 0.0845
97 | AGGGAGAC | 0.0735
98 | CCGTAGGC | 0.0676
99 | GTGAGGCA | 0.0786
100 | CTGGGAGC | 0.0721
101 | CGGACTCA | 0.0765
102 | ACCACGCA | 0.0954
103 | GCTCCGGA | 0.0721
104 | ATACCGGG | 0.0762
105 | GCCTACGA | 0.0712
106 | TCGAAGAA | 0.0729
107 | AGGGGCTA | 0.0762
108 | AACCAACG | 0.0845
109 | ACAGGTTG | 0.0821
110 | GAGTTGAC | 0.0734
